In PubChem BioAssay AID504339 (National Center for Advancing Translational Sciences (NCATS), 2011):
About 17,000 (4.4%) of roughly 390,000 compounds were called active. Inconclusive means that the source gave no clear call. Such entries were picked first, then a sample of the others. Calls come from the whole dose curve; as a rule, active = well fitted inhibition curve with a large enough effect; inconclusive = small, poorly fitted or top-dose-only effect; inactive = no such curve, though single readings can be large or run the other way. Potencies of inconclusive entries are doubtful fits and often do not repeat.

Target: Lysine-specific demethylase 4A (Homo sapiens) (UniProt O75164)
Chain of UniProt O75164 (O75164 whole entry, looked up, the tested form may be a part): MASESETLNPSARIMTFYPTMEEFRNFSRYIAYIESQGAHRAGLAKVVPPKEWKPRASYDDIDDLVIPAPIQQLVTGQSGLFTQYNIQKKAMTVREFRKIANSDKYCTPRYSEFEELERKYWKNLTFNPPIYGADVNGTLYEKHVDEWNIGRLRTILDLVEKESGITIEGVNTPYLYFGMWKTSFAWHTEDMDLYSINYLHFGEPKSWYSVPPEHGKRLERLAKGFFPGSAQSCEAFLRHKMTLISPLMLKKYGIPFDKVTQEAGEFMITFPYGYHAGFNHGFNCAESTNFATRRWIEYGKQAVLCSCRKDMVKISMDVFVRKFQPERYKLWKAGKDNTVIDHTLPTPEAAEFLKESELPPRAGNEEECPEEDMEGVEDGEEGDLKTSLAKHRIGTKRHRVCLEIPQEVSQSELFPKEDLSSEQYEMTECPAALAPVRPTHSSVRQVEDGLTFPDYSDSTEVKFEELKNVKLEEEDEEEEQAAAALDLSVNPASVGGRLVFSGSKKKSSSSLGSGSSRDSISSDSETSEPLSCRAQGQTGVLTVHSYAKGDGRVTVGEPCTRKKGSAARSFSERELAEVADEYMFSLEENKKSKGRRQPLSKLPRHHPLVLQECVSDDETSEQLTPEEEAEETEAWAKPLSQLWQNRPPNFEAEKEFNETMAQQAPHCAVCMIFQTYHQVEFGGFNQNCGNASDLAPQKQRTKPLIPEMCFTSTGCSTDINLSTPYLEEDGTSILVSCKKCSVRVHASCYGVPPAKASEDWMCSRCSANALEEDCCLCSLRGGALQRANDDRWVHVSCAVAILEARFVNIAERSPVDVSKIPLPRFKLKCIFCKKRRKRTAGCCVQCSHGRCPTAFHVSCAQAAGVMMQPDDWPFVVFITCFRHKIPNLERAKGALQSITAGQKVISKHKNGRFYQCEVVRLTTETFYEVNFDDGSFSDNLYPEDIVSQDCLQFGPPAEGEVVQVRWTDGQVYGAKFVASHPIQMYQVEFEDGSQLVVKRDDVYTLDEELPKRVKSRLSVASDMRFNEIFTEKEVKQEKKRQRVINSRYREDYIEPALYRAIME
Experiment: qHTS Assay for Inhibitors of JMJD2A-Tudor Domain; note: nearly all actives have a fitted effect of over 50% in size
Conditions: AlphaScreen JMJD2A-Tudor / H3K4me3 peptide binding; activity change, negative = inhibition: at 114 µM (top of the series)
% is set by controls: 0 for no effect and ±100 for the full control effect; potency is the fitted concentration of half-maximal effect; tags give direction and shape of the fitted curve.

Potency, inconclusive:
COc1ccc(S(=O)(=O)c2c(Nc3ccc(F)cc3)sc(C(=O)c3ccc(C)cc3C)c2N)cc1 44.7 µM [inhibitor, partial curve]
FC(F)(F)c1ccc(C2[C@H]3CN(Cc4cccnc4)[C@H](c4ccccc4)C34CC2(c2cccnc2)C4)cc1 (some centres not stated) 50.1 µM [inhibitor, partial curve]
O=C1c2cc(O)c(O)cc2OC(c2ccc(O)c(O)c2)C1O (configuration not stated) 28.2 µM [inhibitor, partial curve]
O=C1CN(C(=O)c2ccc(Br)o2)C(c2ccc(F)cc2)c2cc(F)ccc2N1 (configuration not stated) 12.6 µM [inhibitor, full curve]
Cc1cc(NC(=O)COC(=O)c2ccccc2NCCO)no1 28.2 µM [inhibitor, partial curve]
CC(C)c1ccccc1NC(=O)COC(=O)Cc1cccc(C(F)(F)F)c1 39.8 µM [inhibitor, single point]
Cc1ccc(-c2cnc(NC(=O)CCC(=O)N3CCCCC3)n2C)cc1 3.16 µM [inhibitor, full curve, poor fit]
CCOc1ccc(C(=O)Nc2ccc(N3CCCC3)cc2)cc1 56.2 µM [inhibitor, partial curve]
COc1ccc(S(=O)(=O)CC(=O)c2cc3cc(Br)ccc3oc2=O)cc1 50.1 µM [inhibitor, partial curve]
CCn1cc(CCC(=O)NCc2ccc(F)cc2)c2ccccc21 20 µM [inhibitor, full curve]
COc1ccc(C2(CNC(=O)Cc3ccc(OC)c(OC)c3)CCOCC2)cc1 89.1 µM [inhibitor, single point]
Cc1ccc([C@H]2Nc3ccc(S(=O)(=O)Nc4cccc(Cl)c4C)cc3[C@H]3C=CC[C@H]32)cc1 70.8 µM [inhibitor, single point]
CCC1CCCCN1CC(=O)c1c(C)[nH]c2cc(C)ccc12 (configuration not stated) 3.98 µM [inhibitor, single point]
COc1cccc(C2c3c(ncn(-c4ccccc4C(C)(C)C)c3=N)Oc3ccc4ccccc4c32)c1 (configuration not stated) 25.1 µM [inhibitor, full curve, poor fit]
CNC[C@@H](CC1CCCCC1)NC[C@H](CC(C)C)NCCc1cccc(C(F)(F)F)c1 12.6 µM [inhibitor, full curve, poor fit]
Cc1ccc(C)c(NC(=O)c2ccccn2)c1 44.7 µM [inhibitor, partial curve]
CCOc1ccc(N2C(=O)/C(=C\c3ccc(OC)c(O)c3)S(=O)(=O)C2c2cccc([N+](=O)[O-])c2)cc1 (configuration not stated) 14.1 µM [inhibitor, partial curve]
Cn1c(C(=O)NCCCN2CCN(c3ccccc3F)CC2)cc2c(=O)n(C)c3ccccc3c21 56.2 µM [inhibitor, partial curve]
Cc1ccc(Nc2nnc(-c3ccc(C)c(S(=O)(=O)N4CCN(C)CC4)c3)c3ccccc23)c(C)c1 50.1 µM [inhibitor, partial curve]
Cc1cc(C)c(Cn2c(CCNC(=O)c3ccco3)nc3ccccc32)c(C)c1 39.8 µM [inhibitor, full curve]
C=CCc1ccc(OCC(O)CN2CCN(c3ccccc3)CC2)c(OC)c1 (configuration not stated) 63.1 µM [inhibitor, partial curve]
COc1ccccc1/C=C/C(=O)NC(=S)NCC1CCCO1 (configuration not stated) 89.1 µM [inhibitor, single point]
CCOc1ccc(C(C(=O)NC2CCCC2)N(CCCO)C(=O)c2ccc(-c3ccccc3)[nH]2)cc1 (configuration not stated) 50.1 µM [inhibitor, partial curve]
O=C1N=c2ccccc2=C1c1c(O)n(-c2cccc(F)c2)[nH]c1=O 79.4 µM [inhibitor, partial curve]
CCCCCCSc1cccc(-c2nc3ccc(C)cn3c2NCc2ccccc2)c1 50.1 µM [inhibitor, partial curve]
CCCN(CCC)CCCNc1ccc(C(=O)Nc2cccc(OC)c2)cc1[N+](=O)[O-] 44.7 µM [inhibitor, partial curve]
CC1(C)CC(=O)C(C=NCCN2CCN(C3CC(=O)N(c4ccc(Br)cc4)C3=O)CC2)=C(O)C1 (configuration not stated) 39.8 µM [inhibitor, partial curve]
CN(C)c1ccc(/C=C/C(=O)c2ccc(O)cc2)cc1[N+](=O)[O-] 35.5 µM [inhibitor, full curve]
CCC(=O)NC(c1cc(Cl)c2cccnc2c1O)c1cccn1C (configuration not stated) 63.1 µM [inhibitor, partial curve]

Potency, active:
CCOC(=O)CSc1nc(-c2ccccn2)ncc1OC 70.8 µM
Clc1nc(Cl)nc(-c2cn(-c3ccccc3)c3ccccc23)n1 79.4 µM
CCOc1cccc(/C(O)=C2/C(=O)C(=O)N(CCOC)C2c2ccco2)c1 (configuration not stated) 79.4 µM
N#C/C(=C/c1ccc(O)c(O)c1)C(=O)NCc1ccc(Cl)cc1 12.6 µM

Potency, inactive:
Cc1ccc(CSCC(=O)NCc2ccc(F)cc2)cc1

Activity change, negative = inhibition, inactive:
COc1ccc(Cn2nnnc2C(CC(C)C)N2CCN(c3ccccc3)CC2)cc1 (configuration not stated) -28.7%
CCCCC(Sc1nc(N)c(NC(=O)c2ccc(OC)cc2)c(=O)[nH]1)C(=O)O (configuration not stated) -11.4%
CSc1ccc(S(=O)(=O)NC2CC2)cc1 -11.6%
CCOC(=O)c1c(S(=O)(=O)NCc2cccs2)c(C)n(C)c1C -5.07%
O=C(CN1C(=O)CCC1=O)Nc1cccc2c1C(=O)NC2=O -4.35%
COc1ccc(-c2noc(-c3ccc(NCc4ccco4)c([N+](=O)[O-])c3)n2)cc1 2.32%
COc1ccccc1C(=O)COC(=O)CNS(=O)(=O)c1ccc(C)cc1 -25.5%
CCn1ncc(C(=O)Nc2ccc([N+](=O)[O-])cc2OC)c1C -7.67%
